The BET-seq Pho4 binding data (Le et al. 2018)
This is one part of the list. These are noisy estimates, calculated here from bound and input reads.

Target: T1, Pho4 (S. cerevisiae) (UniProt P07270)
T1 sequence: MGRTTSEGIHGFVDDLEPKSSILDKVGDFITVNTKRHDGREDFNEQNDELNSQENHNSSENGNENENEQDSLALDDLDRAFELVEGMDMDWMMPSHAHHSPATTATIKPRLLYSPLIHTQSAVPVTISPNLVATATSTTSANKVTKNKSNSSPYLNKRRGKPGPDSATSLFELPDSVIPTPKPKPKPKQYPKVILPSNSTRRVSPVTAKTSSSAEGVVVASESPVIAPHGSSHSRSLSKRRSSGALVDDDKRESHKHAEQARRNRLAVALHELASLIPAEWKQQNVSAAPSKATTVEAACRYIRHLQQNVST
Test: relative binding free energy (BET-seq); higher = weaker binding
Conditions: reference: library average

Relative binding free energy, 0.19 kcal/mol:
AGTGTCACGTGTGAGT
TAGTTCACGTGTTCAT
TTAATCACGTGGTAAG
GCTATCACGTGGTTTT
TTTCACACGTGTTGGG
AGATTCACGTGGTGCA
TTTTACACGTGAGGAG

Relative binding free energy, 0.39 kcal/mol:
ATTAGCACGTGAGTAC

Relative binding free energy, 0.2 kcal/mol:
AGTGTCACGTGTGTGA
TGGCGCACGTGATATG
TTTGTCACGTGTGAAC

Relative binding free energy, 0.47 kcal/mol:
TCGTTCACGTGATATT

Relative binding free energy, 0.36 kcal/mol:
AGGTTCACGTGAGAAA
CTGTTCACGTGATAGG
ATGTTCACGTGATTTT
TTTCTCACGTGTTAGG

Relative binding free energy, -0.03 kcal/mol:
CTAGGCACGTGTCAGT
TGAGTCACGTGGGACT
TGGGTCACGTGGGGCG
ATGAGCACGTGTCATG
TATTGCACGTGATCGG
TGGGACACGTGGCGCT
AGTTGCACGTGGATAT

Relative binding free energy, 0.44 kcal/mol:
TGTTTCACGTGATTCG

Relative binding free energy, 0.02 kcal/mol:
TGTAGCACGTGATTAG
CGAGGCACGTGTGATG
AGTTGCACGTGCAGAT
GGGAGCACGTGATAGA

Relative binding free energy, -0.21 kcal/mol:
TGTGCCACGTGTTCGT

Relative binding free energy, 0.11 kcal/mol:
TTTCGCACGTGATGTT
TAGGTCACGTGCTGGT
TCGGTCACGTGTGTCT

Relative binding free energy, 0.15 kcal/mol:
GGTATCACGTGGCGGG

Relative binding free energy, -0.11 kcal/mol:
GAGTACACGTGGGTCT
ATGTGCACGTGTGTAC

Relative binding free energy, -0.04 kcal/mol:
TGCGGCACGTGTGATG
ATTAACACGTGTGTTT
ATGAGCACGTGGGTTT
GTATACACGTGTGTCG

Relative binding free energy, -0.36 kcal/mol:
TATCGCACGTGGGTGT

Relative binding free energy, -0.32 kcal/mol:
ATAGGCACGTGGGATG

Relative binding free energy, 0.17 kcal/mol:
TGTTACACGTGTTTAT
AAGTACACGTGATTTT
TATGTCACGTGCTGGC
GTTGTCACGTGGGAGA
GACTTCACGTGGGGTT
TCTGTCACGTGTTAGC

Relative binding free energy, -0.15 kcal/mol:
ATAGGCACGTGGCTGT

Relative binding free energy, -0.31 kcal/mol:
TGAGGCACGTGCTGCG

Relative binding free energy, -0.26 kcal/mol:
CGGGCCACGTGCGGGG
TGGGGCACGTGCCGAG

Relative binding free energy, -0.12 kcal/mol:
GTGGCCACGTGTTATG
GTAGGCACGTGCGGGG
TGTGGCACGTGTATAA
GAGGGCACGTGCTTGA

Relative binding free energy, 0.4 kcal/mol:
TAGTTCACGTGTAGGT

Relative binding free energy, 0.23 kcal/mol:
CGTGTCACGTGATCGG
TTATTCACGTGGCAGG
GTAGGCACGTGAGAGT
TTGCTCACGTGTTGTG

Relative binding free energy, -0.27 kcal/mol:
CAGGGCACGTGGTAGG
TGAGCCACGTGGGGGG
GGCGGCACGTGGCCGG
AAAGGCACGTGGGGAA

Relative binding free energy, 0.14 kcal/mol:
AATGGCACGTGTGATG
CCGTGCACGTGAGTGT
GAGTTCACGTGCGTTG
TTGATCACGTGCGGGT

Relative binding free energy, -0.07 kcal/mol:
GTAACCACGTGGGGGT

Relative binding free energy, 0.24 kcal/mol:
TGGGACACGTGACATG
GGGGGCACGTGAAAGG
TTTGTCACGTGGAGAT

Relative binding free energy, -0.23 kcal/mol:
TTGTGCACGTGGGCTA
CGGGCCACGTGGGTTA
ATCGCCACGTGGGGGG

Relative binding free energy, 0.42 kcal/mol:
TGATTCACGTGCGAAT

Relative binding free energy, 0.21 kcal/mol:
TAATTCACGTGGAATT
TGAGTCACGTGACGAT
ATTTTCACGTGTTATC
TGTATCACGTGTAGGG

Relative binding free energy, 0.29 kcal/mol:
TGACTCACGTGTGTGT
ACGGCCACGTGTAGGA
TTTTACACGTGATCGG

Relative binding free energy, 0.31 kcal/mol:
TGGGGCACGTGAAGTG
AAGTTCACGTGGGCTA
GTGTACACGTGAGGGA
ATTTTCACGTGATCTA
TCCATCACGTGTTTTT
AGGATCACGTGATATT
GGTCTCACGTGTGTGG
TGGGACACGTGAGGCG

Relative binding free energy, -0.13 kcal/mol:
ATGAGCACGTGTTTGA
ATGCACACGTGGGGGC
TGCGGCACGTGCGGGT

Relative binding free energy, -0.06 kcal/mol:
TTTAACACGTGTTAAA
GTGGGCACGTGCAGGA
CGCGGCACGTGGTTGG
TCGTGCACGTGGTGGC

Relative binding free energy, 0.34 kcal/mol:
ATAGTCACGTGAAGGC
ATAATCACGTGAAATT
TTCAACACGTGAGTGG

Relative binding free energy, 0.28 kcal/mol:
GGGTTCACGTGTGTCT
GTTTTCACGTGTGTTG
AGTCTCACGTGTTTGT
TAGCTCACGTGGAAGT
GATGTCACGTGTAATT
TGAGTCACGTGAAAAG

Relative binding free energy, -0.14 kcal/mol:
TCTGGCACGTGGATAT
ATGTGCACGTGGCAAG
TAATGCACGTGGGTCT
GGAGGCACGTGGTCTA

Relative binding free energy, -0.05 kcal/mol:
TAGGCCACGTGTAGGA
GTGGGCACGTGTCAGC
TATGGCACGTGTCTGA
TACTGCACGTGTTTTT

Relative binding free energy, 0.26 kcal/mol:
AGCTGCACGTGAGTTT
GCTTTCACGTGCGGGG
TTGCTCACGTGAGGTA
GTGTTCACGTGTGCGA
CTTTACACGTGAGTTT

Relative binding free energy, 0.16 kcal/mol:
CGATGCACGTGTAGGA

Relative binding free energy, 0.13 kcal/mol:
CGCGGCACGTGAGGTT
AGGGTCACGTGGTGTA
CGCGGCACGTGAGAGG
GTTCGCACGTGAGTGG

Relative binding free energy, 0.43 kcal/mol:
GTGTTCACGTGGATAT
GCGGTCACGTGAAAGT

Relative binding free energy, -0.02 kcal/mol:
CTAATCACGTGGTTGG
ATCGTCACGTGGTGTA
TTGTGCACGTGCGTAC
AGGAGCACGTGGTTTC

Relative binding free energy, 0.01 kcal/mol:
CAGTGCACGTGGTAGA
GTAGGCACGTGATATA
CTAGACACGTGATGGT
ATAATCACGTGTATAT
TTCTGCACGTGCGGAG

Relative binding free energy, 0.03 kcal/mol:
TGTGACACGTGTTTTT
GAGGCCACGTGGAGGA
GTTAACACGTGTATGT
GTGAGCACGTGGAAGG
GGCGGCACGTGGGAAA

Relative binding free energy, 0.18 kcal/mol:
GGAGACACGTGAGTGT
CGGGACACGTGGAAGG
CTTTTCACGTGTGAGT
TTTATCACGTGATCGA

Relative binding free energy, 0 kcal/mol:
GTCGGCACGTGTTAGG
TGGGTCACGTGTGCAT
GGGGCCACGTGGATGG
ATTGTCACGTGCATGG
AGTAACACGTGTGTGA
AGTGGCACGTGATGTG
GGTTGCACGTGGCAGG

Relative binding free energy, 0.1 kcal/mol:
AATGGCACGTGTTGTC
CACGTCACGTGTGGGG
GTGTTCACGTGGTATA
CTGTTCACGTGGGGGT
GGTCGCACGTGTGGGA
TTGGTCACGTGGGATC
CTTGTCACGTGAAGGT

Relative binding free energy, -0.18 kcal/mol:
GTTGCCACGTGGTATG
CGTGGCACGTGGCTGG
CATGGCACGTGGGTTC

Relative binding free energy, 0.27 kcal/mol:
GTGCACACGTGATTGA
ATTATCACGTGATATG
TTAGACACGTGAATGT
TTATGCACGTGAATGA
GGGGACACGTGAAGAT

Relative binding free energy, 0.3 kcal/mol:
TTGCTCACGTGAGGTT
GGATGCACGTGACAGT
GGCTGCACGTGAATGG
AGAATCACGTGAGGGT
CGATTCACGTGTGAGT

Relative binding free energy, -0.2 kcal/mol:
ACTAGCACGTGGTAGG
ATCGGCACGTGGGGAG

Relative binding free energy, 0.32 kcal/mol:
AATATCACGTGTTGCA

Relative binding free energy, 0.22 kcal/mol:
GCTTTCACGTGGTAGG
GGTAGCACGTGACGGG

Relative binding free energy, -0.22 kcal/mol:
GTCGGCACGTGGTATA

Relative binding free energy, -0.09 kcal/mol:
AGTAGCACGTGGATGA
CAGTGCACGTGGGTTC
TTATGCACGTGGCCGG
GTGAGCACGTGTCTGT
ACGCACACGTGGTGGG
TTGGGCACGTGTGGAA

Relative binding free energy, 0.08 kcal/mol:
TTCGGCACGTGAGCGG

Relative binding free energy, 0.35 kcal/mol:
CGGTTCACGTGTTCAG

Relative binding free energy, 0.09 kcal/mol:
TTTTCCACGTGGGAGG

Relative binding free energy, 0.05 kcal/mol:
TGACACACGTGATGTT
TGCGTCACGTGCTGTG
TTGATCACGTGCTAGG

Relative binding free energy, 0.25 kcal/mol:
TCTGACACGTGATTTG
TTATTCACGTGTATGG
GGCTTCACGTGGGGTT
TTATACACGTGAGTTT

Relative binding free energy, -0.17 kcal/mol:
TGTAGCACGTGGGGAC
TTATGCACGTGCTCGG

Relative binding free energy, 0.04 kcal/mol:
AGACGCACGTGATGGG
AGTGACACGTGGAGAG

Relative binding free energy, -0.08 kcal/mol:
ATATGCACGTGGGTAT
GGGCACACGTGTGTTG
AGTGCCACGTGGAGGG
AGTTGCACGTGTTAGT
ATTTGCACGTGTCATT
GGGGGCACGTGTACAT

Relative binding free energy, -0.29 kcal/mol:
TAGGCCACGTGGGCGG
TTGCGCACGTGGGGCG
ATGGGCACGTGCCGGT

Relative binding free energy, 0.06 kcal/mol:
TGTGGCACGTGATTCA
CTGGTCACGTGGTTTT
TGTGACACGTGTTAAG
TCGGACACGTGTGTCG
GGGTGCACGTGTTCTG
GTTCGCACGTGTGTTG
TACAGCACGTGTGTAT

Relative binding free energy, 0.07 kcal/mol:
TTGATCACGTGGGAGA
CGCTACACGTGTGTGT
TGTAACACGTGTCAGG
ATGGGCACGTGAACGG

Relative binding free energy, 0.48 kcal/mol:
GTTTTCACGTGAATGC

Relative binding free energy, -0.16 kcal/mol:
GTTGGCACGTGGGGAT
GTAAGCACGTGGGAGT
TATGGCACGTGTCATT
AACGGCACGTGGGAGG
TAGGGCACGTGGATGG

Relative binding free energy, 0.12 kcal/mol:
AGAGTCACGTGTTGGT
ATGTCCACGTGTGGAG
CTTTACACGTGATTTG
TTGAACACGTGGCGTG
GGTCTCACGTGGGGAC

Relative binding free energy, -0.1 kcal/mol:
CATGACACGTGGTTGT
